According to publication PMC12040169 (PLOS Biology, 2025):
The other results are listed elsewhere or left out.

System: T1, C. trachomatis L2/434/Bu expressing GFP (CTL2-GFP)
T1 construct: L2/434/Bu GFP intracellular growth in HeLa cells
Design: species or system HeLa; C. trachomatis total inclusion area by high-content imaging, normalised to DMSO
Conditions: total inclusion area; 28.5 h, 10 µM; inhibitor
Summary of the method: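 Host cell viability was gauged from Hoechst-stained nuclei counts, while chlamydial growth was taken from total inclusion area and inclusion number per well. Cells were fixed and imaged by high-content microscopy once bulk GFP and resorufin fluorescence had been measured.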

Row | Compound | % of control remaining
1 | CCCCn1nccc1NC(=O)NC(C)c1n[nH]c(C)n1 (centres unmarked) [CBK307486] | 77.6118
2 | CCOC(=O)CN1CCN(c2nccnc2Oc2ccc(OC)c(OC)c2)CC1 [CBK083052T] | 70.2061
3 | Cc1cc(C(=O)NCc2ccc(-c3csnn3)cc2)n[nH]1 [CBK149314] | 93.3127
4 | O=C(CC1S/C(=N/N=C/c2ccc(-c3ccc(Br)cc3)o2)NC1=O)Nc1ccccc1 (centres unmarked) [CBK264499] | 108.071
5 | CCc1c(C)sc(NC(=S)Nc2cnccn2)c1C(=O)OC [CBK267088] | 83.4142
6 | Cc1cc(C)c2nn[nH]c2c1CN1CCCC1 [CBK018196] | 83.0434
7 | Cn1c(=O)n(C)c2cc(CNCc3ccc(C(=O)O)cc3)ccc21 [CBK286538] | 81.9581
8 | O=C(CSc1nnc(-c2cccnc2)n1Cc1ccccc1)Nc1ccc(Br)cc1 [CBK267527] | 104.83
9 | Cc1cccnc1NC(=O)c1ccc(NCCc2ccccc2)c([N+](=O)[O-])c1 [CBK269543] | 60.4207
10 | Cn1cc(C(=O)N2CCc3nc(-c4cccc(F)c4)sc3C2)cn1 [CBK281910] | 144.981
11 | COc1ccc(S(=O)(=O)Nc2nccc(-c3ccc(CN4C(=O)CCC4=O)cc3)n2)cc1 [CBK067438] | 92.2031
12 | Cc1cc(OCC(O)CN2CCN(CCO)CC2)cc(C)c1Cl (centres unmarked) [CBK278248C] | 82.5498
13 | CCN(CC)C(=O)c1cnoc1-c1ccc(Br)cc1 [CBK153725] | 84.2444
14 | c1ccc2oc(-c3cncc(N4CCN(CCN5CCCC5)CC4)n3)cc2c1 [CBK066052] | 111.524
15 | CN(C)S(=O)(=O)N(CC(=O)NCC1CCCO1)c1ccccc1 (centres unmarked) [CBK268192] | 85.6969
16 | O=C1c2cccc3cccc(c23)C(=O)N1CC1CCN(CC(O)COCC2COc3ccccc3O2)CC1 (centres unmarked) [CBK074412C] | 90.3445
17 | O=C(O)c1[nH]c2ccccc2c1NS(=O)(=O)c1cc(Cl)sc1Cl [CBK049886] | 85.0042
18 | O=C(Nc1ccc(OC(F)(F)F)cc1)c1cnc(-c2ccc(Cl)cc2)c(-c2ccco2)c1 [CBK037456] | 77.5263
19 | Fc1ccc(NC(=S)NCC2CC2)c(F)c1 [CBK011398] | 52.2408
20 | COC(=O)c1ccc(S(=O)(=O)N2CCc3ccccc3C2)cc1 [CBK068696] | 116.345
21 | O=C1NCCNC(=O)C2(CCCCOc3ccccc31)CCN(C(=O)c1ccnnc1)CC2 [CBK292105] | 91.9277
22 | Cc1cc(C(=O)Nc2cccc(S(=O)(=O)N3CCOCC3)c2)sc1-c1ccccc1 [CBK268185] | 27.0062
23 | O=C(N/N=C/c1ccc(O)cc1)C(=O)N/N=C/c1ccc(O)cc1 [CBK261625] | 99.371
24 | CCOc1ccccc1N1C(=O)CC(Sc2nc(-c3ccccc3)c3cc(Cl)ccc3n2)C1=O (centres unmarked) [CBK265405] | 85.487
25 | CCc1c(S(=O)(=O)CCC(=O)OC)c2ccccc2[n+]([O-])c1C [CBK155469T] | 83.5378
26 | Cc1cc(C(=O)N2CCC(c3nccn3C)CC2)ccc1F [CBK304355] | 93.6929
27 | O=[N+]([O-])c1ccccc1/C=C\C=N\n1c(S)nnc1-c1ccc(Cl)cc1Cl [CBK264405] | 112.59

Row | Compound | % of control remaining
28 | COc1ccccc1NC(=O)CN(c1ccc(Br)cc1)S(C)(=O)=O [CBK265254] | 98.5511
29 | OCc1nnn(-c2ccncc2)c1CO [CBK288549] | 81.8037
30 | Cc1ccc(S(=O)(=O)NCCCN2CCOCC2)c(C)c1C [CBK264990] | 112.524
31 | Cc1csc(C(Cc2ccsc2)NC(=O)Cn2ccnc2)n1 (centres unmarked) [CBK285113] | 123.59
32 | CC1CCN(CCCNS(=O)(=O)c2ccc(N3CCCC3=O)cc2)CC1 [CBK304220] | 58.9428
33 | Cc1cccc(C2N3CCC4(CC3)c3[nH]c5ccccc5c3CCN24)n1 (centres unmarked) [CBK284435] | 82.8166
34 | CC1CCCCN1Cc1nc2c(c(=O)n(C)c(=O)n2C)n1Cc1ccc(Br)cc1 (centres unmarked) [CBK269184] | 110.259
35 | OCc1cccc(-c2nccnc2NCc2ccncc2)c1 [CBK037446] | 88.4445
36 | O=C(c1ccccc1)c1ccc2[nH]nnc2c1 [CBK091608] | 74.6939
37 | Cc1cc(C)c(NC(=O)CSc2n[nH]c(=O)n2C2CC2)c(C)c1 [CBK295598] | 97.2564
38 | Fc1ccc(-c2cn(-c3ccc(OCc4ccccc4)c(F)c3)nn2)cc1 [CBK113121] | 120.523
39 | Cc1nc2ccc(C(=O)NC(C)Cc3cccs3)cc2[nH]1 (centres unmarked) [CBK282487] | 121.9
40 | Cc1cc(C)cc(N(CC(=O)Nc2ccccc2-c2ccccc2)S(=O)(=O)c2ccccc2)c1 [CBK265933] | 72.2523
41 | COc1ccc(OC)c(NC(=O)CSc2ccc(-c3ccncc3)nn2)c1 [CBK287637] | 112.665
42 | CC1(NC(=O)CC2C(=O)NCCN2Cc2cccc(F)c2)CCC1 (centres unmarked) [CBK281611] | 121.598
43 | CC(=O)N[C@H]1CO[C@H]2[C@@H]1OC[C@H]2OC(=O)Nc1ccc(Oc2ccccc2)cc1 [CBK289470] | 76.7972
44 | COc1ccc(C(C)c2cc3c(cc2OC)OCO3)c(F)c1 (centres unmarked) [CBK200112] | 10.1402
45 | O=C(O)C1C2C=CC(C2)C1C(=O)N1CCN(Cc2ccc(Cl)cc2)CC1 (centres unmarked) [CBK270318] | 79.9935
46 | N#CC1=C(Nc2ccccc2)Oc2cc(N)ccc2C1c1cccnc1 (centres unmarked) [CBK269435] | 85.2012
47 | Cc1cc(NCCc2ccc(=O)[nH]c2)nc(-c2cc(F)c(F)cc2F)n1 [CBK144636C] | 93.8335
48 | COc1ccccc1NC(=O)CCn1c(C(F)F)cc2cccnc21 [CBK285065] | 121.792
49 | Cc1ccc([N+](=O)[O-])c(OCCN2CCN(Cc3ccccc3)CC2)c1 [CBK268568G] | 97.006
50 | COc1cc2c(c(OC)c1OC)C(c1ccccc1C)CC(=O)N2 (centres unmarked) [CBK288205] | 80.1772
51 | C#CCNCc1ccc(O)cc1 [CBK013235C] | 54.1112
52 | Cc1ccc2c(c1)OC(C)(C)CC2NS(=O)(=O)N1CCN(C)CC1 (centres unmarked) [CBK307271] | 75.0956
53 | N#CCc1ccc(OC(=O)c2cccnc2)cc1 [CBK090304] | 18.9365
54 | O=S(=O)(c1ccc(C(F)(F)F)cc1Cl)N1CCN(Cc2cccc(Br)c2)CC1 [CBK063163] | 89.5171

Row | Compound | % of control remaining
55 | CCCC(=O)NC(NC(=S)Nc1ccccc1Cl)C(Cl)(Cl)Cl (centres unmarked) [CBK261026] | 75.8962
56 | CCCCSc1nc(N)cc(N2CCC(N3CCCC3=O)CC2)n1 [CBK307525] | 69.9201
57 | O=[N+]([O-])c1cccc(-c2cc(Nc3ccc4[nH]ccc4c3)ncn2)c1 [CBK090860] | 158.831
58 | O=C(Nc1ccc(N2CCOCC2)c(Cl)c1)c1cccc(-n2cnnc2)c1 [CBK269853] | 106.563
59 | CCn1c(SCC(=O)NC2CCCCC2C)nnc1-c1cc2cccc(OC)c2o1 (centres unmarked) [CBK267148] | 128.295
60 | CC(=O)NC(CSc1cc(C)nc2ccc(F)cc12)C(=O)O (centres unmarked) [CBK286815] | 117.838
61 | COCC(=O)N1CCN(Cc2cccc(-c3ccccn3)c2)CC1 [CBK304035] | 81.2217
62 | CNC(=O)CN1C(=O)CC2(C1=O)C(=O)N(CCOC)c1ccc(OC)cc12 (centres unmarked) [CBK075144] | 99.5547
63 | Cc1cc(C)c2[nH]c(CC(=O)N(C)CCN(C)C)nc2c1 [CBK282727] | 120.537
64 | CC(CCCC(C)(C)O)Nc1cncc(-c2ccc(C(N)=O)cc2)n1 (centres unmarked) [CBK066071] | 103.029
65 | O=C(Cc1c[nH]c2ccccc12)Nc1cccnc1N1CCNCC1 [CBK028265T] | 81.2155
66 | CCN(CC)CCCNc1nc2ccc(O)cc2s1 [CBK023880C] | 69.6826
67 | CC(=O)Oc1ccc(C(=O)NCc2ccc3c(c2)OCO3)cc1 [CBK264372] | 102.25
68 | COc1ccc(C(=O)NCC(=O)Nc2ccc(N3CCCCC3)cc2)cc1OC [CBK295199] | 100.222
69 | Cc1nc(CC(NC(=O)C(c2ccccc2)c2ccccc2)c2ccc(F)cc2)cc(=O)[nH]1 (centres unmarked) [CBK285669] | 68.1013
70 | CCN(CC)C(=O)CNS(=O)(=O)c1cc(Br)c(Cl)s1 [CBK034500] | 86.9184
71 | OC1(CN2CCCC2)CCN(Cc2sccc2Cl)CC1 [CBK307491] | 33.3108
72 | COc1cccc(C(=O)C2=C(O)C(=O)N(CCCn3ccnc3)C2c2cccc(F)c2)c1 (centres unmarked) [CBK266419] | 97.418
73 | Cc1ccc(Cn2ncc3c(NCCCN4CCOCC4)ncnc32)cc1 [CBK077470] | 94.9587
74 | Cc1cc(N2CCN(c3ccc(O)cc3)CC2)n2nc(-c3nccn3C)cc2n1 [CBK286188] | 139.663
75 | Cc1cccc(NC(=S)NNC(=O)CCC(=O)O)c1 [CBK261542] | 94.5859
76 | CC1=C(C(=O)OC(C)C)C(c2cccc(I)c2)C2=C(CCCC2=O)N1 (centres unmarked) [CBK026317] | 41.023
77 | c1ccc(Cn2cc(-c3nccnc3OC3CCCCC3)cn2)cc1 [CBK107092] | 107.615
78 | Nc1cccc(-c2cc(C(=O)NCCc3cccnc3)cnc2-c2ccc(F)cc2)c1 [CBK038016] | 96.6826
79 | O=C(NCCN1CCOCC1)N1CCN(CCc2ccccc2)CC1 [CBK158908] | 99.101
80 | COc1cc(C(C)=O)ccc1OCCCN1CCC(O)(C(=O)c2cccc(C(F)(F)F)c2)CC1 [CBK024866C] | 35.1913
